Data taken from PubChem BioAssay AID1461 (National Center for Advancing Translational Sciences (NCATS), 2008).
Out of some 220,000 compounds screened, about 2,300 (1%) were called active. This list was built around the results that the source calls inconclusive (neither active nor inactive); the mix of calls is not that of the screen. Calls follow the shape of the dose curve; as a rule, active = well fitted inhibition curve with a large enough effect; inconclusive = small, poorly fitted or top-dose-only effect, or effect the other way; inactive = no such curve, though single readings can be large or run the other way. No potency is given beside an inconclusive call; the fits are too rough.

biological target: Neuropeptide S receptor (Homo sapiens) (UniProt Q6W5P4); assay: qHTS Assay for Antagonists of the Neuropeptide S Receptor: cAMP Signal Transduction; conditions: CHO-NPSR cells, cAMP TR-FRET, antagonist mode; activity change, negative = inhibition: at 38.3 µM (top of the series) unless noted; also: nearly all actives have a fitted effect of over 50% in size
% is scaled to controls: 0 for no effect and ±100 for the full control effect; potency is read from the fitted curve at half-maximal effect; tags tell the direction and shape of the fitted curve.

Chain of UniProt Q6W5P4 (Q6W5P4 whole entry, looked up): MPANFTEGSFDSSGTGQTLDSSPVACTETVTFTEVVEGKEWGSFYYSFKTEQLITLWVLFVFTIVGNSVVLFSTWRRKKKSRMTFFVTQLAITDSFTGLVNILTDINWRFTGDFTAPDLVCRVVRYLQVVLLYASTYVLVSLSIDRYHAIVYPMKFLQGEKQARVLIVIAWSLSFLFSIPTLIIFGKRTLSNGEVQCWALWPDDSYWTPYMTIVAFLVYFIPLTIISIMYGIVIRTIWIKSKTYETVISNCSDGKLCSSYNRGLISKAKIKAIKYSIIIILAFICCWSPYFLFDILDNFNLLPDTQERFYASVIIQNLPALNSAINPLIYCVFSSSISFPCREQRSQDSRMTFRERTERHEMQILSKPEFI

SMILES | Potency | activity change, negative = inhibition
COc1ccc(C(C)=O)cc1CSc1nc2ccccc2o1 | inconclusive [inhibitor, single point] | –
Cn1c(=O)c2c(nc(CN3CCC(C(N)=O)CC3)n2Cc2c(F)cccc2Cl)n(C)c1=O | – | inactive: -14% [at 46.1 µM]
O=C(NCc1cccs1)c1ccccc1C(=O)NCc1cccs1 | – | inactive: 10.4% [at 46.1 µM]
COc1cccc(C2C(C#N)=C(N)OC(C(C)(C)C)=C2C#N)c1 (stereo not drawn) | – | inactive: -11.7% [at 46.1 µM]
Cc1cc(C)cc(NC(=S)NCc2ccncc2)c1 | – | inactive: 4.52%
COc1ccccc1C(=O)C1CCCN(C(=O)CCc2ccccn2)C1 (stereo not drawn) | – | inactive: -10.5%
COc1ccc(OC)c(Nc2nc(NCCC(C)C)nc(N)c2[N+](=O)[O-])c1 | inconclusive [inhibitor, single point] | –
O=C(OCCNC(=O)c1cc2ccccc2oc1=O)c1cccnc1 | inconclusive [inhibitor, partial curve, poor fit] | –
COc1ccc(OCCSc2ncccn2)cc1 | inconclusive [inhibitor, single point] | –
CCNC(=O)n1nccc1C(C)Oc1cccc(C(F)(F)F)c1 (stereo not drawn) | inconclusive [inhibitor, single point] | –
COc1ccc(N2CCN(C(=S)Nc3ccc(C)cc3C)CC2)cc1 | – | inactive: 27%
Cc1ccc(Cl)c2c1NC(=O)C2(O)CC(=O)c1ccc(Br)cc1 (stereo not drawn) | inconclusive [inhibitor, single point] | –
C=C(C)COc1ccc2c(C)c(C)c(=O)oc2c1OCC(=C)C | inconclusive [inhibitor, single point] | –
O=S(=O)(c1cccs1)N1CCN(c2ccnc3cc(Cl)ccc23)CC1 | inconclusive [activator, partial curve] | –
C#CCN(C)CC/C=C1\c2ccccc2CSc2ccccc21 | inconclusive [inhibitor, single point] | –
CC(=O)Nc1ccc(NC2=C(Cl)C(=O)c3ccccc3C2=O)cc1 | active: 10 µM | –
CCCc1cc(=O)[nH]c(SCCCCN2C(=O)c3ccccc3C2=O)n1 | – | inactive: -15.6%
O=S(=O)(c1ccc2ccccc2c1)N1CCN(C(=S)Nc2ccccc2F)CC1 | inconclusive [activator, single point] | –
CC(=O)c1cc2c(cc1NC(=O)CN1CCC(Cc3ccccc3)CC1)OCO2 | inconclusive [inhibitor, single point] | –
CCCCCCC(=O)c1c(C)[nH]c(C(=O)OCC)c1C | inconclusive [inhibitor, single point] | –
Cc1nc(C)c(C(=O)N/N=C/c2cn(C)c3ccccc23)s1 | inconclusive [inhibitor, single point] | –
O=C(COC(=O)c1cccs1)c1ccc2c(c1)OCCO2 | – | inactive: -41.3% [at 46.1 µM]
COc1ccccc1Cn1c(C(C)C)nc2ccccc21 | inconclusive [inhibitor, single point] | –
CCN(CC)C(=O)CSc1nc2ncc(Br)cc2[nH]1 | – | inactive: 2.34% [at 46.1 µM]
O=C(c1cnn2c(C(F)F)cc(-c3ccccc3)nc12)N1CCCc2ccccc21 | inconclusive [inhibitor, partial curve] | –

SMILES | Potency | activity change, negative = inhibition
Cc1[nH]nc(N=CC2=C(O)CC(C)(C)CC2=O)c1-c1ccc(Cl)cc1 | inconclusive [inhibitor, partial curve] | –
Cc1ccn(C(=O)c2cc3c(C)nn(-c4ccccc4)c3s2)n1 | inconclusive [inhibitor, single point] | –
CN1CCN(CCC(=O)Nc2ccc3c(c2)OCO3)CC1 | – | inactive: 17.5%
O=C(NCc1ccco1)C(c1ccccc1)N(Cc1cccnc1)C(=O)Cn1nnc2ccccc21 (stereo not drawn) | – | inactive: -5% [at 46.1 µM]
S=C1SCN(Cc2cccnc2)CN1Cc1cccnc1 | inconclusive [activator, single point] | –
COc1ccccc1N1CCN(C(c2ccc(Cl)cc2)c2nnnn2C(C)(C)C)CC1 (stereo not drawn) | inconclusive [inhibitor, single point] | –
O=C(O)CCN1C(=O)c2ccccc2C1=O | – | inactive: 0.144% [at 46.1 µM]
COc1ccc(S(=O)(=O)N2CCc3ccccc3C2)cc1OC | inconclusive [inhibitor, partial curve] | –
COC(=O)c1cc(S(=O)(=O)C(C)C)c(S(C)=O)s1 (stereo not drawn) | – | inactive: 21.2%
Cc1nc(SCC(=O)Nc2ccccc2)c2oc3ccccc3c2n1 | inconclusive [inhibitor, single point] | –
CC(=O)c1ccc(N2CCN(C(=O)C3(S(=O)(=O)c4ccc(Cl)cc4)CC3)CC2)cc1 | inconclusive [inhibitor, full curve, poor fit] | –
CCCc1cc(C(=O)Nc2cccnc2)no1 | – | inactive: -0.494% [at 46.1 µM]
COc1ccc(OCCSc2nnc(-c3cccnc3)n2N)cc1 | – | inactive: 9.62%
O=C1/C(=N\S(=O)(=O)c2cccs2)C([n+]2cccc(Cc3ccccc3)c2)=C([O-])c2ccccc21 | inconclusive [inhibitor, single point] | –
CC(=O)OCC(=O)[C@@]12OC3(CCCC3)O[C@@H]1C[C@H]1[C@@H]3CCC4=CC(=O)C=C[C@]4(C)[C@@]3(F)[C@@H](O)C[C@@]12C | active: 3.98 µM | –
COc1cccc(-c2[nH]nc3c2C(c2ccoc2)C(C#N)=C(N)O3)c1 (stereo not drawn) | – | inactive: -13.8% [at 46.1 µM]
Cn1c(=O)c(NCCc2ccccc2)c2c3c(cccc31)C(=O)c1ccccc1-2 | inconclusive [inhibitor, single point] | –
Cn1nnc2c[n+](CC(=O)c3ccc4ccccc4c3)cc(Br)c21 | inconclusive [inhibitor, single point] | –
Cc1ccc(S(=O)(=O)NC2=C(N3CCN(Cc4ccccc4)CC3)C(=O)c3ccccc3C2=O)cc1 | – | inactive: -13.8% [at 46.1 µM]
O=C(NC1CCCCC1)C(c1ccc(F)cc1)N(C(=O)Cc1ccsc1)c1ccc(F)cc1 (stereo not drawn) | – | inactive: -3.06% [at 46.1 µM]
CCOC(=O)C1CCN(C(=O)C2CCN(S(=O)(=O)c3cc(Cl)ccc3Cl)CC2)CC1 | inconclusive [inhibitor, single point] | –
c1ccc2c(c1)NC1(CCCC1)n1c-2nc2ccccc21 | inconclusive [activator, partial curve] | –
O=C(Cn1cc(/C=N/NC(=O)c2cccc3ccccc23)c2ccccc21)Nc1ccc(F)cc1 | – | inactive: -17.6%
COc1ccc2nc(N3CCC(C)CC3)c(C#N)cc2c1 | – | inactive: -1.32% [at 46.1 µM]
CC1CCCCN1CC(=O)NCc1ccc2c(c1)OCO2 (stereo not drawn) | inconclusive [inhibitor, single point] | –

SMILES | Potency | activity change, negative = inhibition
COc1ccc(CCNC2CC(C)N(C)CC2C)cc1OC (stereo not drawn) | – | inactive: 3.62% [at 46.1 µM]
CCC(C)(C)n1nnnc1C(c1cccc(C#N)c1)N1CCN(c2cccc(C)c2C)CC1 (stereo not drawn) | inconclusive [inhibitor, partial curve] | –
CCOC(=O)CCCc1ccc(/C(C)=N/NC(N)=S)cc1 | inconclusive [inhibitor, single point] | –
COc1ccc(NS(=O)(=O)c2ccc(NC(=S)NC(=O)c3cccnc3)cc2)nn1 | – | inactive: -11.8%
COc1ccc(OC)c2c1C(=O)C(Cl)=C(Cl)C2=O | active: 6.31 µM | –
Cc1cccc(NC(=O)c2nc[nH]c2C(=O)N[C@@H](Cc2ccccc2)C(=O)OC(C)(C)C)c1 | inconclusive [inhibitor, single point] | –
CCCN(C(=O)c1ccco1)c1nnc(-c2ccccc2C)s1 | inconclusive [activator, single point] | –
Cc1ccccc1OCC(=O)Nc1ccc(N2CCN(C(=O)C(C)C)CC2)c(Cl)c1 | active: 12.6 µM | –
CCSC1(SCC)N=C(N)C2(C#N)C(c3ccc(OC)c(OC)c3OC)C12C#N (stereo not drawn) | inconclusive [inhibitor, single point] | –
O=C(O)c1cc(S(=O)(=O)NCc2ccco2)c(Cl)cc1Cl | – | inactive: 2.43% [at 46.1 µM]
CC(C)=C1C2CCC1C1C(=O)N(c3nc(-c4ccc(C(C)C)cc4)c(C)s3)C(=O)C21 (stereo not drawn) | inconclusive [inhibitor, single point] | –
Cc1cc(C)cc(-n2ccnc2SCC(=O)O)c1 | – | inactive: -10.6%
O=[N+]([O-])c1cc(-c2ncccn2)c([N+](=O)[O-])s1 | inconclusive [inhibitor, single point] | –
Cn1cccc1Cc1nnc(SCC(=O)NCc2ccccc2Cl)n1-c1ccc(F)cc1 | inconclusive [inhibitor, single point] | –
Cn1c(SCc2nnc(-c3ccccc3Br)o2)nc2sc3c(c2c1=O)CCC3 | inconclusive [inhibitor, partial curve, poor fit] | –
O=C(N/C(=C/c1cccc(Br)c1)c1nc(=S)[nH][nH]1)c1ccccc1 | inconclusive [inhibitor, single point] | –
O=C(CCN1CCN(c2ccccc2F)CC1)c1ccc(Br)cc1 | – | inactive: -13.1% [at 46.1 µM]
CCC(C)N1C(=O)CN(C2CCCCCC2)C(=O)C1c1ccccc1F (stereo not drawn) | – | inactive: -20.4%
O=[N+]([O-])c1ccc2c(c1)N([O-])C1(CCCCC1)[N+]2=O | inconclusive [inhibitor, single point] | –
CCOC(=O)c1cc(=O)n2nc(-c3ccccc3F)nc2s1 | inconclusive [inhibitor, partial curve, poor fit] | –
Cc1sc(NC(=O)c2ccco2)c(CN2CCC(C)CC2)c1C | inconclusive [inhibitor, single point] | –
CCc1nnc(NC(=O)CSc2nc3cc(OC)c(OC)cc3cc2C)s1 | – | inactive: -1.49%
O=C(CSc1ncc(-c2ccccc2)n1C1CCCC1)N1CCc2ccccc21 | inconclusive [inhibitor, single point] | –
